# Test results published in PubChem BioAssay AID686979 (National Center for Advancing Translational Sciences (NCATS), 2013).
# In all, about 420,000 compounds went through this assay and about 50,000 (12%) were called active. This list was built around the results that the source calls inconclusive (neither active nor inactive); the mix of calls is not that of the screen. Calls come from the whole dose curve; as a rule, active = well fitted inhibition curve with a large enough effect; inconclusive = small, poorly fitted or top-dose-only effect; inactive = flat fitted curve, though single readings scatter. No potency is given beside an inconclusive call; the fits are too rough.
# Assay: qHTS for Inhibitors of human tyrosyl-DNA phosphodiesterase 1 (TDP1): qHTS in cells in presence of CPT; note: nearly all actives have a fitted effect of over 55% in size
# Conditions: chicken DT40 Tdp1-/-;hTDP1 cells + 20 nM CPT, ATP luminescence, 48 h; activity change, negative = growth inhibition: at 46.2 µM (top of the series) unless noted
# Outline: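 Chicken DT40 Tdp1-/- cells stably complemented with human TDP1 were seeded at 400 cells/well in medium containing 20 nM camptothecin, exposed to pin-transferred compounds, and grown at 37 °C for at least 48 hr. Viability was read as ATP luminescence.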
# % is set by controls: 0 for no effect and ±100 for the full control effect; potency is the fitted concentration of half-maximal effect; tags give direction and shape of the fitted curve.
SMILES,Potency,"activity change, negative = growth inhibition"
Cc1ccc(Cn2c(SCc3ccc(C(=O)NC4CCCC4)cc3)nc3ccncc32)cc1,"inconclusive [inhibitor, single point]",
C[C@H]1CNC(=O)c2c(C(=O)Nc3ccc(CNC(=O)OC(C)(C)C)cc3)ncn21,active: 14.6 µM,
CCN(CC)C(=O)c1ccc(NC(=O)CSc2nnnn2-c2cc(OC)ccc2OC)cc1,"inconclusive [inhibitor, partial curve, poor fit]",
CCOP(=O)(CCP(=O)(OCC)OCC)OCC.C[CH2][Sn]([Cl])([Cl])[CH2]C,active: 0.731 µM,
O=C(c1ccc2c(c1)N(Cc1ccc(F)cc1Cl)C(=O)c1ccccc1S2)N1CCC2(CC1)OCCO2,active: 23.1 µM,
CCn1c(C)[n+](CC(O)COCC2CC=CCC2)c2ccccc21 (stereo not given),active: 20.6 µM,
CN(c1ccccc1)P(=O)(N1CC1)N1CC1,active: 2.59 µM,
COc1cc2c(cc1O)C[C@H]1NCCc3cc4c(c-2c31)OCO4,active: 18.4 µM,
CC(N)C(=O)c1ccco1 (stereo not given),,inactive: 4.22%
CCCCCCC(C)(C)c1ccc([C@@H]2C[C@H](O)CC[C@@H]2CCCO)c(O)c1,active: 18.8 µM,
COc1ccc(S(=O)(=O)Nc2cc([N+](=O)[O-])ccc2OC)cc1,"inconclusive [inhibitor, single point]",
Cn1c(=O)oc2cc(S(=O)(=O)NCCC(=O)NCCc3ccc(Cl)cc3)ccc21,"inconclusive [inhibitor, partial curve]",
CCNc1nc(NC(C)C)nc(NS(=O)(=O)c2ccc(Cl)cc2)n1,"inconclusive [inhibitor, partial curve, poor fit]",
CCOC(=O)c1cccc(NC(=O)c2cc(S(=O)(=O)N3CCCC(C)C3)cn2C)c1 (stereo not given),"inconclusive [inhibitor, single point]",
C[C@]12CC[C@@H](O)CC1=CC(=O)C1C2CC[C@]2(C)C(=O)CCC12 (stereo not given in full),"inconclusive [inhibitor, single point]",
COC(=O)C1=C(c2ccc(OC(F)(F)F)cc2)C[C@@H]2CC[C@H]1N2C(=O)NC1CCCCC1,"inconclusive [inhibitor, partial curve, poor fit]",
O=[N+]([O-])c1ccc(C(c2ccc([N+](=O)[O-])cc2)c2ccc([N+](=O)[O-])cc2)cc1,active: 7.31 µM,
c1ccc2[nH]c(CCN3CCCCC3)nc2c1,,inactive: -9.74%
CC1CN(C(=O)CCC(=O)N2CCC3(CC2)OCCO3)c2cc(Cl)ccc2O1 (stereo not given),,inactive: -28.8%
CC[N+]12CCC(CC1)C(=C(c1ccccc1)c1ccccc1)C2,"inconclusive [inhibitor, single point]",
CCN(CC)S(=O)(=O)c1ccc(C(=O)NC2CN3CCC2CC3)cc1 (stereo not given),,inactive: -2.58%
Cc1cc(O)c2c(C)c(CC(=O)N3C[C@H]4C[C@@H](C3)c3cccc(=O)n3C4)c(=O)oc2c1,,inactive: -3.81%
CCOc1ccc(N=Cc2c(O)n(-c3cc(C)cc(C)c3)c(=O)[nH]c2=O)cc1,,inactive: -20.9%
COc1ccc(-n2c(/C=C/c3ccc(O)cc3)nc3ccccc3c2=O)cc1,active: 23.1 µM,

SMILES,Potency,"activity change, negative = growth inhibition"
Cc1ccccc1C1=NCC(=O)N(CC(=O)NCc2ccco2)c2sc3c(c21)CCCC3,active: 16.4 µM,
O=C1C(Br)C2CCC1C2C(=O)O (stereo not given),,inactive: -1.78%
O=C(Cc1n[nH]c(=O)c2ccccc12)OCc1c(Cl)cccc1Cl,"inconclusive [inhibitor, partial curve, poor fit]",
O=C(Oc1ccccc1)N1CCC2(CCCN(Cc3nccs3)C2)CC1,"inconclusive [inhibitor, single point]",
CC(C)(C)P(=O)(c1ccncc1)N1CCCC1 (stereo not given),,inactive: 1.25%
CC1=CC(=O)OC2CC3OC4C[C@@H](C)C5OC6CC7O[C@]8(C)C/C=C\C9OC%10CC%11OC(CC(C)CO)CC(O)[C@]%11(C)OC%10CC9OC8C[C@]7(C)O[C@]6(C)CCC5OC4C[C@]3(C)OC12 (stereo not given in full),active: 18.4 µM,
Cc1ccc(-c2nc3ccccc3c(=O)n2-c2ccccn2)cc1,"inconclusive [inhibitor, single point]",
O=[N+]([O-])c1ccc(S(=O)(=O)N2CCn3cccc3C2c2ccccc2F)cc1 (stereo not given),"inconclusive [inhibitor, single point]",
COC(=O)N1Cc2ccccc2-n2nncc2C1,"inconclusive [inhibitor, single point]",
Cc1ccc(NC(=O)CN2C(=O)CN=C(c3ccccc3)c3ccccc32)c(C)c1,"inconclusive [inhibitor, single point]",
COc1cc([C@@H]2c3cc4c(cc3C[C@H]3COC(=O)[C@@H]32)OCO4)cc(OC)c1O,active: 0.0708 µM,
CSc1ccccc1NC(=O)CN(C)CC(=O)c1[nH]c(C)c(C(C)=O)c1C,active: 14.6 µM,
CC(=O)OC1(c2ccccc2)CCN(C)CC1(C)C (stereo not given),,inactive: 1.21%
Clc1cccc(N2CCNCC2)n1,,inactive: 0.501%
CC(=O)OC1CCC2(C)C(=CC(=O)C3C2CCC2(C)C(OC(C)=O)CCC32)C1 (stereo not given),"inconclusive [inhibitor, single point]",
O=C(NCC1=C(c2ccc3ccccc3c2)C[C@@H]2CC[C@H]1N2Cc1ccco1)c1cccs1,"inconclusive [inhibitor, single point]",
NS(=O)(=O)c1ccc(CCNC(=O)c2ccc(Cl)c(S(=O)(=O)N3CCCCCC3)c2)cc1,active: 20.6 µM,
COC(=O)C1=C(c2c(C)noc2C)C[C@@H]2CC[C@H]1N2C(=O)N1CCC(O)(c2ccc(Cl)cc2)CC1,"inconclusive [inhibitor, single point]",
O=C1NCN(c2ccccc2)C12CCN(C(c1nnnn1-c1ccc3c(c1)OCCO3)C1CC1)CC2 (stereo not given),active: 23.1 µM,
O=P1(c2ccccc2)Nc2ccccc2N1c1ccccc1 (stereo not given),"inconclusive [inhibitor, single point]",
Cc1ccc(NC(=O)COC(=O)CCc2c[nH]c3ccccc23)cc1[N+](=O)[O-],"inconclusive [inhibitor, single point]",
COc1cccc(-n2c(CN3CCN(C)CC3)nc3ccc([N+](=O)[O-])cc3c2=O)c1,"inconclusive [inhibitor, partial curve, poor fit]",
CN1CCN(Cc2nc3ccccc3c(=O)[nH]2)CC1,,inactive: -27.7%
O=P(NCc1ccccc1)(Oc1ccccc1)Oc1ccccc1,"inconclusive [inhibitor, single point]",

SMILES,Potency,"activity change, negative = growth inhibition"
COCCCNC(=O)CC1C[C@H](C(=O)N2CCCCC2)[C@@]2(CCc3ccccc3)c3[nH]c4ccccc4c3CCN2C1=O (stereo not given in full),active: 23.1 µM,
COc1ccc(NC(=O)[C@@H](NC(=O)N2C[C@H]3C[C@@H](C2)c2cccc(=O)n2C3)C(C)C)cc1,,inactive: 11.8%
Oc1ccccc1-[n+]1c(-c2ccccc2)cc(-c2ccccc2)c(O)c1-c1ccccc1,"inconclusive [inhibitor, single point]",
O=C(CCC1CCN(Cc2ccccc2)CC1)c1ccc2c(c1)NCCCC2,"inconclusive [inhibitor, single point]",
NNCc1cccc(O)c1,"inconclusive [inhibitor, single point]",
Nc1c(C(=O)Nc2ccc(OC(F)(F)F)cc2)sc2nc3c(cc12)N1CCC3CC1,active: 16.4 µM,
O=c1[nH]c2c(c(=O)n1C1CCCCC1)CCC2,"inconclusive [inhibitor, partial curve]",
COc1cc(/C=C/c2nc3ccccc3c(=O)n2-c2ccc(Br)c(C)c2)ccc1O,active: 20.6 µM,
CCCCCSc1cc(OC)c(CCN(C)C)cc1OC,"inconclusive [inhibitor, single point]",
CNc1ccccc1C(=O)O,,inactive: -9.23%
COC1C=CC23c4cc5c(cc4CN(CC2O)C3C1)OCO5 (stereo not given),active: 2.06 µM,
C[C@]12CCC3C(CC[C@H]4C[C@@H](O)CC[C@]34C)C1CC[C@@H]2OC(=O)[C@H](N)CCCCN (stereo not given in full),"inconclusive [inhibitor, single point]",
Cc1ccc(Oc2cc(NN3CCCCC3)c([N+](=O)[O-])cc2[N+](=O)[O-])c([N+](=O)[O-])c1,"inconclusive [inhibitor, single point]",
COc1cc(/C=N/Nc2ccc(S(N)(=O)=O)cc2)cc(OC)c1OC,"inconclusive [inhibitor, single point]",
CCCCCn1c(=O)c(C(=O)NCc2ccc(Cl)cc2)c(O)c2ccccc21,"inconclusive [inhibitor, single point]",
CCCCn1nnnc1C(CCc1ccccc1)N1CCC(n2c(=O)[nH]c3ccccc32)CC1 (stereo not given),active: 11.6 µM,
COc1ccc(NC(=O)c2oc3ccc(S(=O)(=O)N(C)C4CCCCC4)cc3c2C)cc1,active: 10.3 µM,
Cc1cc(/C=C2\C(=O)NC(=O)N(Cc3ccccc3)C2=O)c(C)n1-c1ccc(Cl)c(C(=O)O)c1,,inactive: 1.94%
CN(Cc1cccc(-c2ccncc2)c1)C(=O)Oc1ccccc1Cl,"inconclusive [inhibitor, single point]",
O=c1[nH]c(=O)n(Cc2ccccc2Cl)c(O)c1/C=C1/C=CC=N1,active: 5.8 µM,
C/C(=N\N1CCCCCC1)c1c(O)n(-c2ccc(Cl)cc2)c(=O)[nH]c1=O,"inconclusive [inhibitor, single point]",
O=C(c1ccc(Br)cc1)C12CN3CN(CN(C3)C1)C2,"inconclusive [inhibitor, partial curve]",
